# Several values for one entry are separate records, joined by “and”; a condition that tells them apart may be missing. Equal values may be shown once. In all, about 420,000 compounds went through this assay and about 50,000 (12%) were called active. Inconclusive results, whose numbers are uncertain, are shown with a selection of clear calls. The call rests on the fitted dose curve; in most records, active means well fitted inhibition curve with a large enough effect; inconclusive means small, poorly fitted or top-dose-only effect; inactive means flat fitted curve, though single readings scatter. Potencies of inconclusive entries are doubtful fits and often do not repeat.
# Assay: qHTS for Inhibitors of human tyrosyl-DNA phosphodiesterase 1 (TDP1): qHTS in cells in presence of CPT; further: nearly all actives have a fitted effect of over 55% in size
# Conditions: chicken DT40 Tdp1-/-;hTDP1 cells + 20 nM CPT, ATP luminescence, 48 h; activity change, negative = growth inhibition: at 46.2 µM (top of the series)
# Procedure, shortened: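 Cell growth measured by CellTiter-Glo luminescence after a minimum 48 h, 37 C compound exposure with 20 nM CPT in Tdp1-knockout DT40 cells stably expressing hTDP1, seeded 400/well; qHTS titration format.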
# On the % scale 0 is the no-effect control and ±100 the full control effect; potency means the concentration at half of the fitted maximal effect; tags describe the fitted curve by direction and shape.
Compound,Potency,"activity change, negative = growth inhibition"
COCCN1C[C@@H](CO)O[C@@H](n2cnc3c(NC4CCC4)ncnc32)C1,inactive,–
CCCc1ccc(C(O)c2ncc(-c3ccccc3C)[nH]2)cc1 (stereo not drawn),"inconclusive: 23.1 µM [inhibitor, single point]",–
CCCn1c(-c2ccc(S(=O)(=O)N3CCOCC3)cc2)csc1=Nc1ccc(OCC)cc1,active: 4.11 µM,–
CCOC(=O)c1c(CN(CC)CC)n(-c2ccccc2)c2ccc(O)cc12,"inconclusive: 29.1 µM [inhibitor, single point]",–
O=C(O)[C@H](Cc1ccccc1)NC(=O)N1CCOCC1,inactive,–
CS(=O)(=O)N1CCCCC1c1cc(C(=O)Nc2ccc3c(c2)OCO3)no1 (stereo not drawn),inactive,–
COc1ccc(Cl)cc1NC(=O)CN(C(=O)c1ccco1)C1CCCCC1,inactive,–
CCCCOc1ccc(C(=O)CCN2CCOCC2)cc1,active: 5.17 µM,–
COc1ccc(NC(=O)CSc2nc(N)c(NC(=O)c3cccs3)c(=O)[nH]2)cc1,"inconclusive: 23.1 µM [inhibitor, single point]",–
FC(F)(F)c1nc(NCc2cccnc2)c2ccccc2n1,"inconclusive: 29.1 µM [inhibitor, single point]",–
NC(=O)C1=C[C@@H](c2csc3ccccc23)C[C@@H](OCCCCO)O1,inactive,–
CCOC(=O)c1c(NC(C)=O)sc2c1CCC(C=O)=C2Sc1ccccc1,active: 6.51 µM,–
O=C(NCc1ccccc1Cl)C(=O)NCC(c1cccs1)S(=O)(=O)c1cccs1 (stereo not drawn),"inconclusive: 29.1 µM [inhibitor, single point]",–
CCCSCCCNC(=O)C1CCN(c2nn3cc(-c4ccc(F)cc4)nc3s2)CC1,active: 5.17 µM,–
CCN1C(=O)N[C@@H](c2ccco2)C(C(=O)OC)=C1C,inactive,–
Cc1c(Cl)c([N+](=O)[O-])nn1Cc1ccc(C(=O)N/N=C\c2cccc(Br)c2)o1,"inconclusive: 29.1 µM [inhibitor, single point]",–
CCOC(=O)c1sc(=S)n(CC)c1NC(=O)CC,inactive,–
COc1ccc(-c2cnc3c(NC=O)cc(-c4ccc(C(=O)N5CCOCC5)cc4)cn23)cc1OC,active: 4.11 µM,–
Cc1c(C(=O)N2c3ccccc3Sc3ccccc32)cccc1[N+](=O)[O-],–,inconclusive: -37.7% [inhibitor]
Cc1c(C(=O)Nc2nnc(C3CC3)s2)oc2ccccc12,inactive,–
Cc1ccc2nc(-c3ccc(O)cc3)c(Nc3ccc4c(c3)OCCO4)n2c1,"inconclusive: 29.1 µM [inhibitor, single point] and inconclusive: 14.6 µM [inhibitor, partial curve]",–
O=C1C2C(C(=O)N1/N=C/c1cc(Br)cc([N+](=O)[O-])c1O)C1C=CC2C12CC2 (stereo not drawn),"inconclusive: 29.1 µM [inhibitor, single point]",–
CCOC(=O)CCc1c(C)nc(SCC(=O)O)c(C#N)c1C,"inconclusive: 6.51 µM [inhibitor, single point]",–

Compound,Potency,"activity change, negative = growth inhibition"
CN(c1ccccc1)S(=O)(=O)c1cccc(NC(=O)CN2C(=O)NC3(CCCCC3)C2=O)c1,inactive,–
COc1ccccc1N1CCN(C(c2ccccc2Cl)c2nnnn2C(C)(C)C)CC1 (stereo not drawn),"inconclusive: 29.1 µM [inhibitor, single point]",–
CN1C(c2ccc(F)cc2)=CS/C1=C(/C#N)c1nnc(N2CCOCC2)n1-c1ccccc1,"inconclusive: 29.1 µM [inhibitor, single point]",–
Cc1nn(C(C)C(=O)NCCCN(Cc2ccccc2)C(C)C)c(=O)c2c1sc1ccccc12 (stereo not drawn),"inconclusive: 25.9 µM [inhibitor, single point]",–
Cc1ccc(C)n1-c1nnc(N2CCCC(C(=O)Nc3ccc(C(C)C)cc3)C2)s1 (stereo not drawn),active: 20.6 µM,–
Clc1ccccc1CNCc1ccc2c(c1)OCO2,"inconclusive: 11.6 µM [inhibitor, partial curve]",–
COC(=O)c1c(NC(=O)c2ccc(S(=O)(=O)N3CCOCC3)cc2)sc2c1CCN(C(C)C)C2,"inconclusive: 18.4 µM [inhibitor, single point]",–
CCOc1ccccc1Nc1cc2n(c(=O)n1)CCc1cc(OC)c(OC)cc1-2,"inconclusive: 9.2 µM [inhibitor, partial curve]",–
CCC1CCCCN1CCCNC(=O)c1cc2c(Cl)nc3ccccc3c2s1 (stereo not drawn),"inconclusive: 29.1 µM [inhibitor, single point]",–
N#CC1(C#N)OC12CCS(=O)(=O)c1ccccc12 (stereo not drawn),"inconclusive: 20.6 µM [inhibitor, single point]",–
O=C(NCCCO)c1cc2c([nH]c3ccccc32)c(-c2ccc(F)cc2)n1,"inconclusive: 18.4 µM [inhibitor, single point]",–
COc1ccc2cc(N3CCCC3=O)ccc2c1,"inconclusive: 13 µM [inhibitor, partial curve]",–
Cc1csc(N2C(=O)C3C4CCC(O4)C3C2=O)n1 (stereo not drawn),inactive,–
Cc1ccc(-n2nc3c(c2NC(=O)/C=C\c2ccc4c(c2)OCO4)CSC3)cc1,"inconclusive: 29.1 µM [inhibitor, partial curve]",–
CC1(c2ccccc2)NC(=O)N(CC(=O)N2CCN(S(=O)(=O)c3cccc([N+](=O)[O-])c3)CC2)C1=O (stereo not drawn),inactive,–
Cc1ccc(C)c(N2C(=O)N(Cc3cc(=O)n4ccccc4n3)c3ccccc3S2(=O)=O)c1,"inconclusive: 25.9 µM [inhibitor, single point]",–
COc1ccc(-c2csc(NC(=O)c3cc(=O)c4ccccc4o3)n2)cc1OC,"inconclusive: 6.51 µM [inhibitor, partial curve]",–
CCOC(=O)C[C@H]1c2cc(F)ccc2S(=O)(=O)N1c1cccc(OC)c1,"inconclusive: 35.5 µM [inhibitor, single point] and inconclusive: 14.6 µM [inhibitor, single point]",–
Cc1ccc(CNC(=O)c2ccc3c(c2)nc(C)n3-c2cc(C)cc(C)c2)cc1,"inconclusive: 29.1 µM [inhibitor, single point]",–
COc1ccc(-n2nnnc2SCC(=O)c2ccc(O)c(O)c2)cc1,"inconclusive: 29.1 µM [inhibitor, single point]",–
Cc1c(C(=O)NCc2cccc(Cl)c2)sc(=O)n1Cc1cccc(F)c1,"inconclusive: 29.1 µM [inhibitor, single point]",–
CCOC(=O)C1=CC[C@@H](c2ccccc2)N(S(=O)(=O)c2ccc(C)cc2)[C@H]1C=C(C)C,active: 16.4 µM,–
Cc1ccccc1C(=O)N1CCC(C(=O)N2CCN(Cc3ccc4c(c3)OCO4)CC2)CC1,"inconclusive: 29.1 µM [inhibitor, single point]",–

Compound,Potency,"activity change, negative = growth inhibition"
CCc1cccc(NC(=O)Nc2csc3c2CCCC3)c1,active: 20.6 µM,–
CCn1c(SCC(=O)Nc2nccs2)nnc1-c1ccc(S(=O)(=O)N2CCCCC2)cc1,"inconclusive: 16.4 µM [inhibitor, single point]",–
COc1ccc(NC(=O)C2CCN(c3nc(-c4ccc(OC)cc4)no3)CC2)cc1,–,inconclusive: -30.4% [inhibitor]
O=C(CSc1ccccc1)Nc1nnc(COc2ccc(Cl)cc2)s1,active: 8.2 µM,–
CCOc1ccc(C2c3c(oc4ccccc4c3=O)C(=O)N2CCCN2CCOCC2)cc1OCC (stereo not drawn),"inconclusive: 7.31 µM [inhibitor, partial curve]",–
CC(C)(C)c1ccc(C(=O)N/N=C2\C3CN4CCN(C3)CC2(c2ccccc2)C4)cc1,"inconclusive: 29.1 µM [inhibitor, single point]",–
COc1cc(C)ccc1OCCSc1nc2ccc(NC(=O)c3ccc(F)cc3)cc2s1,"inconclusive: 23.1 µM [inhibitor, single point]",–
CCCCOc1ccc(C(=O)Nc2ccc(-c3nc4ccccc4s3)cc2C)cc1,"inconclusive: 6.51 µM [inhibitor, single point]",–
CCOC(=O)CCc1c(C)c2ccc(OC3CCCCC3=O)c(C)c2oc1=O (stereo not drawn),"inconclusive: 23.1 µM [inhibitor, single point]",–
Cc1ccc(N(CC(=O)NCCc2ccccc2)S(=O)(=O)N(C)C)cc1,inactive,–
CC1(C)C=Cc2c(ccc(C(=O)/C=C/c3ccccc3)c2O)O1,active: 7.94 µM,–
O=C(OCC(=O)C12CC3CC(CC(C3)C1)C2)c1ccc(O)cc1O,"inconclusive: 29.1 µM [inhibitor, single point]",–
CCOC(=O)C1=CCN(S(=O)(=O)c2ccc(C)cc2)C1c1cccc(Br)c1 (stereo not drawn),active: 16.4 µM,–
O=C(COc1ccc(S(=O)(=O)N2CCOCC2)cc1Cl)NCC1CCCO1 (stereo not drawn),inactive,–
Cc1ccc2oc(C(=O)N3CCCCCC3)c(C)c2c1,"inconclusive: 18.4 µM [inhibitor, single point]",–
CC(=O)c1cccc(S(=O)(=O)N2CCN(c3nc(-c4cccs4)nc4ccccc34)CC2)c1,"inconclusive: 35.5 µM [inhibitor, single point]",–
CC(=NNC1=NCCN1)c1cnn(C2=NCCN2)c1C,inactive,–
COc1cccc(C(C)(O)c2nc(-c3cccc(C(F)(F)F)c3)cs2)c1 (stereo not drawn),"inconclusive: 29.1 µM [inhibitor, single point]",–
COc1ccccc1/C=N/NC(=O)c1cccc(OC(F)(F)C(F)F)c1,inactive,–
COc1cccc(/C=C/C(=O)NNC(=O)CCN2CCN(Cc3ccccc3)CC2)c1,inactive,–
O=c1oc2ccccc2cc1-c1csc(Nc2nc3c(F)cccc3s2)n1,active: 14.6 µM,–
Cn1c(=O)[nH]c(=O)c2c1nc(Br)n2CC(O)COc1ccc(Cl)cc1 (stereo not drawn),"inconclusive: 29.1 µM [inhibitor, partial curve, poor fit]",–
